Out of some 310,000 compounds screened, about 18,000 (5.8%) were called active. The shares of active, inactive and inconclusive entries below differ from those in the screen. The call rests on the fitted dose curve; in most records, active means well fitted inhibition curve with a large enough effect; inconclusive means small, poorly fitted or top-dose-only effect, or another doubt; inactive means no such curve, though single readings can be large or run the other way. No potency is given beside an inconclusive call; the fits are too rough.
Test: Primary qHTS for delayed death inhibitors of the malarial parasite plastid, 48 hour incubation
Settings: P. falciparum luciferase growth in erythrocytes; series mostly up to 28.7 µM
In short: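 Compounds are pin-transferred into medium, infected erythrocytes (2% hematocrit, 0.1% parasitemia final) are added, and plates sit one parasite generation at 37 C in 5% CO2. Detection reagent is then added and luminescence measured.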
Potency means the concentration at half of the fitted maximal effect; tags describe the fitted curve by direction and shape.

Structure (SMILES) | Potency
CCOC(=O)c1ccc(NC(=S)N2CCN(CCNC3=CC(=O)CC(C)(C)C3)CC2)cc1 | active: 0.0262 µM
Cc1ccc(NC(=O)CC(C)CC2=NS(=O)(=O)c3ccccc3N2)cc1 (stereo unspecified) | inconclusive [inhibitor, full curve, poor fit]
O=C(CN1CCCC(O)C1)N1c2ccccc2Sc2ccc(C(F)(F)F)cc21 (stereo unspecified) | inconclusive [inhibitor, partial curve, poor fit]
CNCc1c(OCc2ccccc2)ccc2ccccc12 | inconclusive [inhibitor, single point]
CCCS(=O)(=O)c1c(S(=O)(=O)CCC)c2cnccn2c1C(=O)c1ccc(F)cc1 | active: 13.1 µM
COc1ccc(C(CNC(=O)C(CCSC)NC(=O)c2ccccc2Cl)N2CCCC2)cc1 (stereo unspecified) | inconclusive [inhibitor, single point]
O=C(c1ccco1)N1CCCN(Cc2nc(-c3cccs3)no2)CC1 | inconclusive [inhibitor, partial curve, poor fit]
CCOc1ccc2c(c1)C(=NNC(=O)c1ccncc1)c1cc(OCC)ccc1-2 | active: 9.28 µM
Oc1ccc(N=Nc2nccs2)c(O)c1 | active: 9.28 µM
O=C(NCC(c1ccco1)N1CCN(c2ccccc2F)CC1)OCc1ccccc1 (stereo unspecified) | inconclusive [inhibitor, single point]
Cc1ccnc(NC(=O)c2ccccc2NC(=O)C(C)(C)C)c1 | inconclusive [inhibitor, single point]
O=C(N/N=C/c1ccc([N+](=O)[O-])cc1)c1cc(C2CC2)[nH]n1 | inactive
COc1ccc(C(=O)c2c(-c3ccc(OC)cc3)oc3ccccc23)cc1 | inconclusive [inhibitor, partial curve, poor fit]
Clc1ccc(OCc2nnc(-c3ccccc3Br)o2)cc1 | inactive
Cc1cc(C)c(C(=O)COC(=O)CCn2c(C)csc2=O)cc1C | inactive
CC1CCN(S(=O)(=O)c2ccc(C(=O)Nc3nnc(-c4ccco4)o3)cc2)CC1 | inconclusive [inhibitor, single point]
CC(=O)Nc1ccc(NC(=O)COC(=O)c2ccccc2C(=O)c2ccccc2)cc1 | inconclusive [inhibitor, single point]
CC(C)(C)c1ccc(C(=O)CCCSC2=C(C#N)C(c3ccco3)C3=C(CCCC3=O)N2)cc1 (stereo unspecified) | active: 6.57 µM
COCCCNC(=O)c1cn(Cc2c(F)cccc2Cl)nn1 | inactive
N#CC1=C2SCN(Cc3ccccc3)CN2C(=O)CC1c1ccc2c(c1)OCO2 (stereo unspecified) | inconclusive [inhibitor, single point]
O=C(NNc1ccccc1Cl)C(O)(c1cccc(C(F)(F)F)c1)c1cccc(C(F)(F)F)c1 | active: 3.29 µM
CCCCCCn1c(O)c(/C=N/N2CCCCCC2)c(=O)[nH]c1=O | inactive
O=C(NCCCN1CCOCC1)c1ccc(CSCc2cccc(Cl)c2)o1 | inconclusive [inhibitor, partial curve, poor fit]
Cc1cccn2c(=O)c3cc(C(=O)NCCN4CCOCC4)c(=N)n(CCc4ccccc4)c3nc12 | active: 0.465 µM

Structure (SMILES) | Potency
O=S(=O)(c1ccccc1)c1cnn(-c2ccccc2)c1-c1ccc(F)cc1 | inconclusive [inhibitor, partial curve]
NC(=O)c1c(N)sc2c1CCCC2 | inactive
CCN(CC)CCNC(=O)c1ccc(NC(=O)c2cn(-c3ccc(F)cc3)nc2-c2cccc(OC)c2)cc1 | active: 1.85 µM
CN(C)C(CNC(=O)Cc1ccc([N+](=O)[O-])cc1)c1ccccc1 (stereo unspecified) | inconclusive [inhibitor, partial curve, poor fit]
CC(=O)Nc1ccc(NC(=O)CCCc2c[nH]c3ccccc23)cc1 | inactive
Cc1cccc(C)c1N1CCN(C(=O)N2CCCCC2)CC1 | inconclusive [inhibitor, single point]
Cc1cccc(Cn2c(SCCN3CCOCC3)nc3c2c(=O)n(C)c(=O)n3C)c1 | inconclusive [inhibitor, single point]
CCCCOc1nc(N2CCOCC2)nc(C)c1[N+](=O)[O-] | inactive
O=C(c1ccc2[nH]c(=O)c(=O)[nH]c2c1)N1CCN(c2ccccc2)CC1 | inactive
CCN(C(=O)CN1c2ccccc2CC1C)c1c(N)n(Cc2ccccc2)c(=O)[nH]c1=O (stereo unspecified) | inactive
CCN1CCCC1CNCc1ccc(OCc2ccc(Cl)nc2)c(OC)c1 (stereo unspecified) | inconclusive [inhibitor, single point]
CCN(CC)CCNC(=O)c1ccc(NC(=O)/C=C/c2cc(OC)c(OC)c(OC)c2)cc1 | active: 5.22 µM
CCn1ncc(N(C)N)c(Cl)c1=O | inactive
COc1ccc(C(=O)N[C@H](C(=O)N2CCN(c3ccccc3F)CC2)C(C)C)cc1 | inactive
COc1ccc(N(CC(=O)Nc2ccc3c(c2)OCO3)S(=O)(=O)c2ccc(F)cc2)cc1 | inactive
Cc1ccc(NC(=O)Cc2nnc(SCC(=O)NC3=NCCS3)n2C)cc1 | inactive
O=C(c1ccco1)n1c(=S)nc2ccccn21 | inactive
Cc1ccc(NC(=O)NCCN2CCCCC2)cc1 | inactive
CCN(CC(O)CON=C1c2ccccc2-c2ccccc21)S(=O)(=O)c1ccc(C)cc1 (stereo unspecified) | inconclusive [inhibitor, single point]
CCCCn1c(NC(=O)c2ccccc2)nc2ccccc21 | inconclusive [inhibitor, partial curve, poor fit]
Nc1cc(N)nc(SCCOc2ccccc2)n1 | inactive
COc1ccc(NC(=O)CSc2nnc3ccc(-c4ccccn4)nn23)c(OC)c1 | inconclusive [inhibitor, single point]
S=C(Nc1nc2c(s1)CCCC2)NC1CC1 | inconclusive [inhibitor, single point]
COc1ccc(-c2cc(=O)oc3cc(OCC(=O)N(C)C4CCS(=O)(=O)C4)ccc23)cc1 (stereo unspecified) | inconclusive [inhibitor, single point]

Structure (SMILES) | Potency
O=C(Nc1cccc(C(F)(F)F)c1)C1CCN(S(=O)(=O)c2cccnc2)CC1 | inactive
COc1ccc(C(=O)CN2C(=O)NC(C)(c3ccc(C)cc3)C2=O)cc1OC (stereo unspecified) | inconclusive [inhibitor, partial curve, poor fit]
COc1cccc(-c2cc(CC3(O)CCN(CCCc4ccccc4)CC3)on2)c1 | active: 11.7 µM
O=C(NCCCN1CCOCC1)NC1CCCCC1 | inconclusive [inhibitor, partial curve, poor fit]
CC(=O)NC1C(=O)N(CCc2ccccc2)c2ccccc21 (stereo unspecified) | inconclusive [inhibitor, partial curve, poor fit]
CCCCn1c(C)c(C(=O)O)c2cc(OC)ccc21 | inactive
Cn1c(=O)c2c(nc(Sc3ncccn3)n2Cc2ccccc2Cl)n(C)c1=O | inconclusive [inhibitor, partial curve]
CN(C)c1ccc(-c2nnn(CC(=O)Nc3ccccc3N3CCOCC3)n2)cc1 | inconclusive [inhibitor, partial curve]
CC(=O)Oc1ccc2c(C)c(CC(=O)N3CCN(C(=O)C4COc5ccccc5O4)CC3)c(=O)oc2c1C (stereo unspecified) | active: 11.7 µM
O=C(c1cccc(Cl)c1)N1CCN(S(=O)(=O)c2ccc(Cl)s2)CC1 | inconclusive [inhibitor, single point]
O=C(Nc1c(C(=O)Nc2cccc3ccccc23)cnn1-c1ccccc1)c1ccco1 | inconclusive [inhibitor, single point]
COc1ccc(CN2C(=O)c3ccccc3C2C(=O)NC2CCCC(C)C2C)c(OC)c1 (stereo unspecified) | inconclusive [inhibitor, partial curve]
O=C(Cn1c(=O)oc2ccccc21)N1CCCCC1 | inconclusive [inhibitor, single point]
Nc1c(C(=O)NCc2ccccc2)c2nc3ccccc3nc2n1CCCN1CCOCC1 | inconclusive [inhibitor, single point]
O=C(NCc1ccco1)c1ccc(Br)c(S(=O)(=O)N2CCCCC2)c1 | inconclusive [inhibitor, partial curve, poor fit]
Cc1cc(OCC(O)CNC(C)c2ccccc2)ccc1C(C)C (stereo unspecified) | inconclusive [inhibitor, partial curve, poor fit]
Cc1ccc(C2C3=C(CC(C)(C)CC3=O)N=C3c4ccccc4C(=O)C32)cc1 (stereo unspecified) | active: 8.28 µM
CCC(C(=O)NCCC(C)C)N(Cc1ccccc1Cl)C(=O)c1snc(C(N)=O)c1N (stereo unspecified) | inconclusive [inhibitor, partial curve]
COc1ccc(NC(=O)CN(C)C(=O)CC2CCCCC2)cc1 | inconclusive [inhibitor, single point]
Cc1cc(C)c2c(N)c(C(=O)N3CCc4ccccc4C3)sc2n1 | inconclusive [inhibitor, partial curve]
O=C(N/N=C/c1cn(-c2ccccc2)nc1-c1cccnc1)c1cccnc1 | inconclusive [inhibitor, partial curve, poor fit]
Clc1ccc2nc(CN3CCCc4ccccc43)cn2c1 | inconclusive [inhibitor, single point]
CC(C)c1csc(CN2CCN(Cc3ccc(F)cc3)C(CCO)C2)n1 (stereo unspecified) | inconclusive [inhibitor, single point]
